Laboratory results taken from ChEMBL document CHEMBL1201862, “PubChem BioAssay data set” (2004).
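Where inhibition never reached the appropriate level, the endpoint shown equals the highest concentration tested. Otherwise, values were interpolated linearly from a five-concentration, 48-hour dose response in 96-well plates. At the GI50, growth is halved.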 The source made the active and inactive calls. Cut-off read from the data, not from the text of the source: active = GI50 up to about 1.1 µM and inactive = higher.

System: NCI-H322M
Test: growth of human tumour cells (NCI), 48 h

| Compound | GI50 |
| --- | --- |
| COc1cc(/C=C2/C(=O)N(C(=O)c3ccc(Cl)cc3)N=C2C)cc(OC)c1OC | inactive: > 100 µM |
| O=c1cc(-c2ccc(O)c(O)c2)oc2cc(O[C@H]3O[C@H](CO)[C@@H](O)[C@H](O)[C@H]3O)cc(O)c12 | inactive: 68.2 µM |
| Cc1cc(C(=O)CSC(=S)SC(C)(C)C)ccc1Cl | inactive: 17.6 µM |
| CCN(CC)c1ccc2cc(C(N)=O)c(=N)oc2c1 | inactive: 39.3 µM |
| O=C(O)CCc1nc(-c2ccccc2-n2cccc2)no1 | inactive: > 100 µM |
| c1ccc(NCCSc2nc3ccccc3s2)cc1 | inactive: 51.5 µM |
| Cc1cccc(C)c1NC(=O)Nc1ccc(S(N)(=O)=O)cc1 | inactive: > 100 µM |
| O=Nc1ccc(O)c2ncccc12 | inactive: 13.2 µM |
| COc1cc2oc(-c3ccc(O)cc3)cc(=O)c2c(O)c1C1OC(CO)C(O)C(O)C1O (configuration not stated) | inactive: > 100 µM |
| COC1=C2C[C@@H](C)C[C@@H](OC)[C@@H](O)[C@H](C)/C=C(\C)[C@@H](OC(N)=O)[C@H](OC)/C=C\C=C(/C)C(=O)NC(=CC1=O)C2=O | inactive: 8.51 µM |
| CC(=O)OCC1OC(n2c3c(cc(C#N)c2=S)CCCC3)C(OC(C)=O)C(OC(C)=O)C1OC(C)=O (configuration not stated) | inactive: > 100 µM |
| CSc1ccc(Nc2cc(=O)[nH]c(=O)[nH]2)cc1 | inactive: > 100 µM |
| CCc1nnc(S)n1/N=C\c1ccc(-c2ccccc2Cl)o1 | inactive: 73.1 µM |
| N#CC1(C#N)N[C@@H](c2ccsc2)[C@H]2C(=O)N(c3ccccc3)C(=O)[C@H]21 | inactive: > 100 µM |
| Cc1ccc2c(c1)C1C(CO2)C(c2ccccc2)=NN1c1ccccc1 (configuration not stated) | inactive: > 100 µM |
| CCN(CC)CCn1nc(N)c2nc3cc(Cl)ccc3nc21 | inactive: 91.2 µM |
| COc1ccc(C2C3COc4ccccc4C3=NN2c2ccccc2)cc1 (configuration not stated) | inactive: > 100 µM |
| O=C1CSc2cc([N+](=O)[O-])ccc2N1 | inactive: > 100 µM |
| COC(=O)C1CC2(c3ccccc3)C(=O)c3ccccc3N2O1 (configuration not stated) | inactive: > 100 µM |
| C=C1[C@@H]2CCC(C)(C)[C@H]1CCC(=O)[C@@H]2C(=O)OC | inactive: > 100 µM |
| CCOC(=O)CC1=N/C(=N/C(=N)N[N+](=O)[O-])SC1 | inactive: > 100 µM |
| CS[C@]12C(=O)C[C@@]3(C)[C@@H](CC[C@]3(O)C(=O)CO)[C@@H]1CCC1=CC(=O)CC[C@@]12C | inactive: > 100 µM |
| CC(=O)c1c(-c2ccccc2)c(-c2ccc(OCCN(C)C)cc2)n2ccccc12 | inactive: 15.5 µM |

| Compound | GI50 |
| --- | --- |
| NCCC1(N)CCNCC1 | inactive: > 100 µM |
| COC(=O)CCC(NC(=S)N/N=C(\C)c1cccs1)C(=O)OC (configuration not stated) | inactive: > 100 µM |
| OCC1OC(NC(=S)NCCC(F)(F)C(F)(F)C(F)(F)C(F)(F)C(F)(F)C(F)(F)F)C(O)C(O)C1O (configuration not stated) | inactive: > 100 µM |
| O=C(Cc1ccccc1)NN1C(=O)/C(=C\c2cccc(O)c2)S/C1=N\c1ccccc1 | inactive: > 100 µM |
| CCCCCCCCCCCCCCCCNc1nc(=O)n(C2CC(O)C(CO)O2)cc1F (configuration not stated) | inactive: 12.8 µM |
| N#C/C(=C/n1c(=S)[nH]c2ccc([N+](=O)[O-])cc21)C(N)=O | inactive: > 100 µM |
| CCC1OC2C(CC=C(C)C)=C3OC(C)(O)C(C)(CC)C(OC(C)=O)C3=C3OC(=O)C=C1C32 (configuration not stated) | inactive: 30.1 µM |
| Cc1ccc2[nH]c3c(c(=O)n(C)c(=O)n3C)c2c1 | inactive: > 100 µM |
| O=C(c1ccccc1Br)C(F)(F)F | inactive: > 100 µM |
| CCOC(=O)COc1cccc2occc(=O)c12 | inactive: > 100 µM |
| CN(NC(=O)c1cccs1)C1=NCCCN1 | inactive: > 100 µM |
| COc1ccc(/C=C2\C[C@H]3[C@@H]4CCC5=C/C(=N/O)CC[C@]5(C)[C@H]4CC[C@]3(C)\C2=N\O)cc1OC | inactive: 9.14 µM |
| Nc1nnc2nc(CC(=O)/C=C/c3ccccc3)c(=O)[nH]n12 | inactive: > 100 µM |
| CC(C)=CC1(C)/C(=N\O)C(C)(CC(C)C)C(=O)N1O (configuration not stated) | inactive: > 100 µM |
| COc1ccc(N2C(=O)c3c(c4[nH]c5ccc(OC)cc5c4c4ccc(C(C)(C)C)cc34)C2=O)cc1 | inactive: > 100 µM |
| COc1ccc2nc3ccccc3c(NCCCCCCN(C)CCCl)c2c1 | active: 0.52 µM |
| NC(=O)N/N=C/C(/C=N/NC(N)=O)[N+](=O)[O-] | inactive: > 100 µM |
| O=C(/C=N/O)Nc1cc(Cl)c(Cl)cc1Cl | inactive: 32.1 µM |
| O=c1[nH]nc(Cn2c3ccc(Br)cc3c3nc4ccccc4nc32)n1C1CCCCC1 | inactive: > 100 µM |
| Cc1ccc(O)c(-c2cc(-c3cccc(Br)c3)on2)c1 | inactive: 22.2 µM |
| COc1cc2c(cc1OCc1ccccc1)NC(=S)[C@@H]1CCCN1C2=S | inactive: > 100 µM |
| O=C(Nn1cc(F)c(=O)[nH]c1=O)C12CC3CC(CC(C3)C1)C2 | inactive: 14.5 µM |
| O=C1NC2(CCNCC2)Oc2ccccc21 | inactive: > 100 µM |

| Compound | GI50 |
| --- | --- |
| O=C(O)CCC(=O)N1c2ccccc2CC1c1c[nH]c2ccccc12 (configuration not stated) | inactive: > 100 µM |
| CCCCn1c2c(n(CCCC)c1=S)-c1c(n(CCCC)c(=S)n1CCCC)S[Se][Se]S2 | inactive: 10.6 µM |
| COc1cc2c3c(n(C)c(=O)c2cc1OC)-c1cc2c(cc1/C3=C/CCCCBr)OCO2 | inactive: > 100 µM |
| CN(C)c1ccc(/C=N/c2ccc(-c3nc4ccccc4[nH]3)cc2)cc1 | inactive: 46.1 µM |
| COc1ccc(NCC(=O)Nn2c(-c3ccccc3)nc3ccccc3c2=O)cc1 | inactive: > 100 µM |
| O=C(NC(OCc1ccccc1)(C(F)(F)F)C(F)(F)F)OCc1ccccc1 | inactive: 17.2 µM |
| CCCCCCCCCCCCCCCCP(=O)([O-])OCC[N+](C)(C)C | inactive: 22.9 µM |
| COC(=O)[C@H](CC(C)C)NC(=O)[C@H](Cc1ccccc1)N1CC2C=CC1C2 (some centres not stated) | inactive: > 100 µM |
| Cc1c(/C=N/NC(=S)Nc2cccc(Cl)c2)c(=O)n(-c2ccccc2)n1C | inactive: 21.8 µM |
| CCN1C(=O)c2cc(OC)c(OC)cc2C(=O)C12OC(=O)c1cc3c(cc12)OCO3 (configuration not stated) | inactive: 36.1 µM |
| O=C1C(Br)=C(c2ccccc2)O/C1=C/C(=O)c1ccc(Br)cc1 | inactive: > 100 µM |
| CN(/N=C/c1cccc2cccnc12)c1ccc([N+](=O)[O-])cc1[N+](=O)[O-] | inactive: 43.1 µM |
| CCCC(=O)Nc1cc(C(=O)N2C[C@H]3C[C@@]34C2=CC(=O)c2[nH]cc(C)c24)n(COC)c1 | active: 0.652 µM |
| CC1C(C)(C)C23CC12C1(OCCO1)C3Br (configuration not stated) | inactive: > 100 µM |
| CC1(C)CN=C(Nc2ccc(F)cc2)S1 | inactive: > 100 µM |
| O=C(O)c1cc2c3c(c1)[C@H]1C=CC[C@H]1CN3CC1CC=CC21 (some centres not stated) | inactive: > 100 µM |
| C=C=C(CC)C(C(=O)OC)N(CC)CC (configuration not stated) | inactive: > 100 µM |
| CC(=O)c1c(SCCN2CCCCCC2)n(-c2ccccc2)c(=S)n(-c2ccccc2)c1=O | inactive: 26.8 µM |
| COC(=O)C1CCC(=O)N1C(=O)Cc1ccc(OC)cc1 (configuration not stated) | inactive: > 100 µM |
| Cn1c(SCc2c[nH]c3ccccc23)nnc1-c1ccc(Cl)cc1Cl | inactive: 23.7 µM |
| Cn1c(=O)c2c3oc(=O)cc(O)c3c(=O)n3c4ccccc4n(c1=O)c23 | inactive: 76.9 µM |
| COC(=O)c1ccc2c(c1)CCN2C(=O)c1cc2c(cc1Br)OCO2 | inactive: 16.3 µM |
| CSCCCNC(=O)[C@H](CSC)NC(=O)c1csc(CCNC(=O)[C@@H](NSc2ccccc2[N+](=O)[O-])C(C)O)n1 (some centres not stated) | inactive: > 100 µM |

| Compound | GI50 |
| --- | --- |
| Cc1nc2c(=O)n(C)c(=O)nc-2n(-c2ccc(Cl)cc2)c1C | inactive: > 100 µM |
| CCNC(=S)NNC(=O)c1ccccc1Nc1ccccc1C(=O)NNC(=S)NCC | inactive: > 100 µM |
| Cc1c2c(cc3c1[nH]c1ccccc13)C(c1ccc(F)cc1)=NCC2 | inactive: 1.77 µM |
| O=NN1CCN=C1c1ccc([N+](=O)[O-])cc1 | inactive: > 100 µM |
| COc1ccc(CC[N+]2(C)COc3cc4oc(=O)cc(C)c4cc3C2)cc1OC (configuration not stated) | inactive: > 100 µM |
| CCOC(=O)C1=C(C)N(NC(N)=O)C(C)(O)C12CCOC2=O (configuration not stated) | inactive: > 100 µM |
| CN(C)CCOc1ccc([N+](=O)[O-])c2cccnc12 | inactive: 51.5 µM |
| Nc1nc(Cl)c(N)c(NC23CC4CC(CC(C4)C2)C3)n1 | inactive: 2.13 µM |
| COc1cc2c(cc1OC)C1[C@@H](c3ccccc3)OCN1CC2 (some centres not stated) | inactive: > 100 µM |
| C=CCOCCCC(=O)C(=[N+]=[N-])C(=O)OC | inactive: > 100 µM |
| COC(=O)C#CCC1CCCC1C1SCCS1 (configuration not stated) | inactive: > 100 µM |
| CC(C)(C)OC(=O)NC(CSSCC(NC(=O)OC(C)(C)C)C(=O)O)C(=O)O (configuration not stated) | inactive: > 100 µM |
| Cc1ccc(S(=O)(=O)N/N=c2\c(C)c(C3=NS(=O)(=O)c4cc(S(N)(=O)=O)c(Cl)cc4N3)oc3c(Cl)cc(Cl)cc23)cc1 | inactive: > 100 µM |
| NC(=O)CCC(NC(=O)c1cccc2c(=O)c3ccccc3[nH]c12)C(=O)O (configuration not stated) | inactive: > 100 µM |
| CC(C)=CC1C(COC(=O)c2cc3c(cc2Cl)OCO3)C1(C)C (configuration not stated) | inactive: 80.5 µM |
| CN(C)c1ccc(/C=C/C(=O)N[C@@H]2C(=O)N3[C@@H]2SC(C)(C)[C@@H]3C(=O)O)cc1 | inactive: > 100 µM |
| COc1ccc(CC2CCc3nc(N)nc(N)c3C2)cc1OC (configuration not stated) | inactive: 2.91 µM |
| Nc1ncc2c(n1)-c1ccccc1OC2N1CCCC1 (configuration not stated) | inactive: > 100 µM |
| C[N+](C)(C)CCCCCc1c2nc(c(CCCCC[N+](C)(C)C)c3ccc([nH]3)c(CCCCC[N+](C)(C)C)c3nc(c(CCCCC[N+](C)(C)C)c4ccc1[nH]4)C=C3)C=C2 | inactive: > 100 µM |
| O=S(=O)(O)c1cc(O)c(/N=N/c2ccc(O)cc2O)c2ccccc12 | inactive: 37.2 µM |
| Cn1c(=O)nc2n(-c3ccc(F)cc3)c3ccccc3nc-2c1=O | inactive: 27.5 µM |
| CCN(CC)C(=S)SS(=O)(=O)c1ccc(NC(C)=O)cc1 | inactive: 49.5 µM |
| COc1ccc(/C(C#N)=C/c2ccc(OC)c(OC)c2)cc1 | inactive: > 100 µM |
